Publication doi:10.1101/2021.04.26.441477 (bioRxiv, 2021)
Where “and” joins values, the source holds several entries; their conditions need not be identical. Identical values can stand only once.

Target: the molecule itself
Experiment: cross-linking

B1: Nucleolin in Nucleolin immunoprecipitates (Nucleolin IP) (natural protein)
chain: not shown
stoichiometry N: 2 and 4 and 6
